Sequences with one replicate were seen in a single cluster, so their values are uncertain.
Tested on: ATP
Test: switch fluorescence ratio, 500 uM ATP over buffer (Cy3 cluster intensity, sum of 5 cycles each) (fold (ratio)); higher = stronger signal-on switching upon ATP binding; sequences stand for … in TCGTCGGCAGCGTCAGATGTGTATAAGAGACAGTTTTTTTTTTTTTTTTTTTTTTTTT…TC
Settings: aptamer strand: ATP DNA aptamer (quencher-CACCTGGGGGAGTATTGCGGAGGAAGG + anchor), 100 nM annealed; ATP concentration: 500 uM; one replicate
Outline: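 Cy3-labelled switching-strand clusters on a modified Illumina MiSeq flow-cell were annealed to 100 nM quencher-labelled ATP aptamer and imaged first in selection buffer, then after 15 min with 500 uM ATP at 22 °C. NaOH stripping and re-annealing separated each of five buffer/ATP cycles, and clusters outside 100-1000 RFU were excluded. The fluorescence ratio sums target-cycle Cy3 intensity over buffer-cycle Cy3 intensity per cluster and averages it per switch-domain sequence.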
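Note: ATP exposure 15 min at 22 °C before imaging.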

Sequence	switch fluorescence ratio
AGCCTCTAAG	1.01
TTCGTACTCG	0.986
GATGGGCTAC	1.04
AGGATGAGTT	0.928
ACTCCCAGTC	3.69
CATATTCGAG	1.01
CTACACTCAA	1.03
CCTGACAACT	1.06
ATATGCCATC	1.04
TTCGACATCA	0.99
GTCCGTGGCG	0.968
GCGGGTGTCT	0.988
TATCGTGCTC	0.98
AGGTAGGCAA	1.05
GTCAGTGGG	0.995
AGTGATCGA	1.07
TATTCTGAAA	0.989
AGATTTGTTT	1.03
TACACTCTGA	0.999
AAGGTAACTT	1.01
TGGGCGTC	1.02
AGTTATGTGA	0.997
CTTTTCCGCC	2.68
GTTTAATAAT	1.02
ACATGAGGGC	1.1
TAAGAATTGC	1.01

Sequence	switch fluorescence ratio
CCCTTAGTAG	0.978
CGCCTGAGT	1.04
AAGAATAGAG	0.979
TCGCAAAGTT	1.12
ACGAATATGG	1.07
GGCAATGGCT	1.05
TTTCTACGCT	1.12
TGTCTCGCAA	4.5
CCAACGATGG	1.05
TGCTGCATGG	1.13
CGTGGGTGA	1.07
ACTAGTGTTC	1.02
TATCTCGAGG	1.01
TTTAAGTCG	1.02
ATTAAATAGG	0.975
TTGCCATGGA	1.01
GTAAGCTTG	1.01
GGAAAAGCAT	0.959
AGCAAGAAGT	1.03
CGTGGGTTAA	0.978
GACATTAGTG	0.999
ATTTTCACCC	1.05
TGTTAGATA	0.951
TTGTTGTGCC	1.02
TGGGACGGGA	1.02
TATAAACTAA	1.03

Sequence	switch fluorescence ratio
CCTGCTGCGT	1.36
GGGGAGCG	0.922
ATCTGGG	1.02
CCTGACGTAC	2.41
TTGCCATCTT	0.999
GGTAACTGCA	1.06
AATTCGCCCG	1.02
AAGATATAA	1.02
ATCGTTCACT	1
TGCTATTCGG	1.02
CTTGAAGTAT	0.974
GACAGTCCGG	1.08
GGGGACGATC	1.04
ACAAGGGTAC	1.05
TGTTGCGACC	1.04
TTTTGGACG	1.01
ACCCTGTATT	1.05
AATATCCAGC	0.993
GTTCCCTAGT	0.967
TTGGACCATA	1.04
ACATGTAGTT	0.933
TCAGGCGTAA	1.31
TAACCTCGGT	1
TCTCTATCTT	0.968
ATTCATCCT	1.15
TGCCATCTAT	0.975

Sequence	switch fluorescence ratio
AAACTCGTTT	0.968
TAACGGTCTT	0.955
GGCGATGAGA	1.05
TTATGGTAT	1.01
CACGCCAAGG	1.32
TGGTGTCCCC	1.05
TGAAGTCTAT	0.979
TCGAGACAGT	1.06
CCTGCGGCCT	1.17
TGCGTCGTTC	1.01
CGGATTCGGG	0.96
TGACGGTCTT	1
TCCAATCTGT	0.958
GGTACAGCTC	1.02
TGTGAGAAAT	1.04
GTGGGTTGTC	0.969
ACAATTACGC	1.12
ATGGTCGGAC	0.962
AAGGACAAGC	1.02
AGATATTCCA	1.03
GCTCGCCCTC	1.16
TGCTGTTCGG	1.01
CATTGTTTGG	0.977
ACATAGTTCG	1.05
TTTACTGTGA	0.99
ACATGGCTTT	0.987

Sequence	switch fluorescence ratio
TAAAAACAAA	0.966
TTCTTCGTCT	0.972
GACTGTCATA	1.02
GTCTTTGG	0.967
TGACAGTATG	1.05
GCCGTACATT	1.06
AGAGTCCCTG	1.02
ACTGTGGGAA	1.03
CATAGTTCAG	0.989
AATGTGTAGT	1.02
GGTATAGACT	0.984
GTAGCGTAGG	0.997
AGCTAGTGCC	0.995
GCTTACGGCA	0.964
GGTAATTAAT	1.48
AAGAAGCGTC	1.16
ACAGGGGACA	1.06
TCTGGTTGAC	1.01
TTAATGGAAG	0.961
AATGGAGTAT	1.11
ACCTAGCTAT	1.13
GACGATATTG	0.963
AAATCGGGCC	0.996
TCAGTCACTT	0.995
CTTTGGGCGG	1.01
CATGTGTCAA	1.04

Sequence	switch fluorescence ratio
TACTGCAGG	1.03
GGGTTCGAGA	0.986
ACGGTGTCGT	1.04
CGCTATAGGG	1.09
CATTTGTGCA	1.01
TCCCTAGTGG	1.01
ATTAGCTGTT	0.97
ACCCCCTCGG	1.5
ATAGTCTGAG	0.99
TTCTATCCAA	0.983
AGGATAGGGA	1.04
ACAGATTACC	1.28
TTACCCGGCG	1.08
ATAATGGTTC	0.949
CCCATCCCAG	1.14
TGGTTGTGGT	0.947
AGAGCGATTT	1.03
CTAATACCGT	1.04
GCGTATTACA	1.09
CACGAAAGGG	1.08
TCCGGGCCAG	1.03
GAGGTCACAC	1.02
GTGTGAGCCC	1.14
GAGCGGCAAA	1.04

From the supplement of paper PMC10126150
